The campaign covered roughly 310,000 compounds. About 2,200 (0.71%) showed an effect of 50% or more. The effect is printed as a negative number. The list shows a part of the results.
What follows are compounds tested against human ether-à-go-go-related gene (hERG) potassium channel (human, UniProt Q12809) (assay: primary screen, population patch clamp on CHO cells stably expressing hERG).
Sequence of human ether-à-go-go-related gene (hERG) potassium channel (Q12809 whole entry, looked up): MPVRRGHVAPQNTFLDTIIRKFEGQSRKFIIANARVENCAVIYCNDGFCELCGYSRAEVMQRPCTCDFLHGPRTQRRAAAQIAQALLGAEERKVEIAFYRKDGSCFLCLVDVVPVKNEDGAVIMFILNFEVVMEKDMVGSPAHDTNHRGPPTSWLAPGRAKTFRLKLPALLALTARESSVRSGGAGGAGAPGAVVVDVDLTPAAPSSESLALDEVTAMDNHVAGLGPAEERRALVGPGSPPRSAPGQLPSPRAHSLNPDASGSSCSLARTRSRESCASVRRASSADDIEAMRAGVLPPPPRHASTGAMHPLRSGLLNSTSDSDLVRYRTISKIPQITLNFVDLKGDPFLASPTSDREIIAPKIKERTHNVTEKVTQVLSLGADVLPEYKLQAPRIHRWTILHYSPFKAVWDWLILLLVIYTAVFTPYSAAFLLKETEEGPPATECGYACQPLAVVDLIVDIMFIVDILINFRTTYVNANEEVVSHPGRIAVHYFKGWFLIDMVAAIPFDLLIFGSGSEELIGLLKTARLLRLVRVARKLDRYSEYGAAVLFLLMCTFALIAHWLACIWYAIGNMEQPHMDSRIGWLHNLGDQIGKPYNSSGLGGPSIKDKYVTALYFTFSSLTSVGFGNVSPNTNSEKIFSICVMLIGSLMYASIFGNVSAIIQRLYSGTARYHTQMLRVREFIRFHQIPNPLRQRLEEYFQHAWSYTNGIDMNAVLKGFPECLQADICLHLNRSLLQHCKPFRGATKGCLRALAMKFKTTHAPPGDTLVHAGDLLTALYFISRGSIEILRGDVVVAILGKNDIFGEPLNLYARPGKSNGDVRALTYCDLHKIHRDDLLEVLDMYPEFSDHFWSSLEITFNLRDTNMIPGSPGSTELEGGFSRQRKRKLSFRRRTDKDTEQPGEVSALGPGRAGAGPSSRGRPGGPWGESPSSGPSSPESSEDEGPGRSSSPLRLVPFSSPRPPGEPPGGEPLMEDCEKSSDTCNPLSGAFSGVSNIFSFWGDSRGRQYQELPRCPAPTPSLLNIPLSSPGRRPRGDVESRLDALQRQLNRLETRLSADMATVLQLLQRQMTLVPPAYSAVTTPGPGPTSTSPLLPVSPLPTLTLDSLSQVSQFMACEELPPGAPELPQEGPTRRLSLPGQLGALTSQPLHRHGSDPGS

Structure (SMILES)	hERG current change (%, negative = inhibition) at 1uM [%]
Nc1nnc(CC(=O)N/N=C/c2ccc(-c3cccc(C(=O)O)c3)o2)s1	10.6
Cc1ccc(NC(=S)NNC(=S)NC2CCCCC2)cc1	9.28
O=C(CN1CCN(CC(=O)Nc2ccc(Cl)cc2)CC1)Nc1ccc(F)cc1	-86.9
COc1ccc(N2CCN(C(=O)COC(=O)c3cc(S(=O)(=O)N(C)C)ccc3N3CCCC3)CC2)cc1	13.2
C/C(CC(=O)Nc1cccc(C(F)(F)F)c1)=N\NC(=O)C(=O)NCC(C)C	2.68
O=C(N/N=C/c1ccc([N+](=O)[O-])o1)c1cn(-c2ccccc2)nc1-c1ccccc1	3.33
Cl.Nc1nc(C23CC4CC(CC(C4)C2)C3)cs1	8.94
O=C(Nc1ccccc1)c1ccc[n+](Cc2ccc([N+](=O)[O-])cc2)c1.[Br-]	5.28
COc1cc(NC(=O)c2ccccc2)c(OC)cc1NC(=O)Cc1ccc(F)cc1	6.34
Cl.Nc1c2ccccc2nc2ccccc12.O	6.6
O=C(Oc1ccccc1Cl)c1ccc(N2CCOCC2)c([N+](=O)[O-])c1	5.77
CCOC(=O)CN1N=C(/C=C/c2ccc(OCC)cc2)CCC1=O	-8.48
COC(=O)[C@H](Cc1ccccc1)NC(=O)NCCc1ccc(F)cc1	6.68
CCS(=O)(=O)C1=NN2C(=N)/C(=C\c3ccc(OCCOc4cccc(OC)c4)c(OC)c3)C(=O)N=C2S1	14.2
COc1ccccc1CNC(=O)CC1Sc2ccccc2NC1=O (stereo not shown)	6.07
CS(=O)(=O)Nc1ccc(C(=O)NC2CCCC2)cc1	14.4
CCN(CC)S(=O)(=O)c1ccc(N=NC2=C(O)CC(C)(C)CC2=O)cc1	8.55
CCCCc1ccc(NS(=O)(=O)c2c(C)n(C)c(=O)n(C)c2=O)cc1	8.02
C=CCOC(=O)C1=C(C)N=C2SCCC(=O)N2C1/C=C/c1ccccc1OC (stereo not shown)	5.23
C=CCn1cc(/C=N/N2C(=O)C3C4C=CC(C4)C3C2=O)c2ccccc21 (stereo not shown)	12.9
O=C(O)c1cc(N2C(=O)C3CC=CCC3C2=O)ccc1NCc1cccnc1 (stereo not shown)	16.5
COc1ccc(/C=C/C(=O)OCC(=O)c2ccc3c(c2)NC(=O)CO3)c(OC)c1	9.57
COc1ccc(CC(NC(C)=O)C(=O)N2CCN(C(=O)Nc3ccc(Cl)cc3)CC2)cc1OC (stereo not shown)	-8.89
NNC(=O)c1ccccc1OCc1ccccc1	-2.14
Cc1ccccc1-n1c(SCC(=O)N2CCOCC2)nc(O)c(Cc2ccccc2)c1=O	2.4
CC(C(=O)NC(=O)NC1CCCCC1)N1CCN(C(c2ccccc2)c2ccccc2)CC1 (stereo not shown)	10
CCCCn1c(NC(=O)c2ccco2)c(C(=O)OCC)c2nc3ccccc3nc21	-22
Cc1cc(C(=O)N2CCN(c3ccc([N+](=O)[O-])cc3)CC2)n[nH]1	-36.6

Structure (SMILES)	hERG current change (%, negative = inhibition) at 1uM [%]
CCC(C(=O)OCc1csc(CC(=O)Nc2ccccc2C)n1)c1ccccc1 (stereo not shown)	8.92
CCCCn1c(CCNC(=O)c2ccco2)nc2ccccc21	7.54
c1nc(N2CCCC2)c2[nH]cnc2n1	-0.216
COc1ccc2nc(SCC(=O)Nc3ccc(S(=O)(=O)Nc4nccc(C)n4)cc3)[nH]c2c1	-1.19
O=C(/C=C/c1cccc([N+](=O)[O-])c1)NCCc1ccc(F)cc1	0.561
Cc1c(NS(=O)(=O)c2ccc(Br)s2)c(=O)n(-c2ccccc2)n1C	7.94
Cc1oc2c(c1C(=O)NCc1cccnc1)C(=O)c1ccccc1C2=O	2.67
CNC(=O)CSc1nnc(-c2ccco2)n1-c1ccc(C)cc1	-10.9
COc1ccc2c(Cl)c(C(=O)NCCc3ccc(S(N)(=O)=O)cc3)sc2c1	13.1
CCOC(=O)c1cc2sccc2n1CC(=O)N1CCCc2ccccc21	4.76
CC(C)(C)c1ccc(C(=O)N2CCN(CCNC(=O)C(=O)Nc3ccc(F)cc3)CC2)cc1	3.72
COc1ccc(NC(=O)c2ccc(C#CC(C)(C)O)cc2)cc1	5.31
COc1ccc(/C=C/C(=O)OCC(=O)NCc2cccs2)cc1OC	1.61
CC(=O)c1ccc(NC(=O)C[n+]2ccccc2)cc1.[Cl-]	6.4
CC1CCN(C(=O)CN2c3cccc4cccc(c34)S2(=O)=O)CC1	12.9
COc1cccc(/C=N/Nc2ccc(S(=O)(=O)[O-])cc2)c1O.[K+]	4.86
O=C(Nn1cnnc1)c1cc(Cl)ccc1Cl	12.6
CC(C)(C)NCC(O)COc1c(F)cc(Br)cc1F.Cl (stereo not shown)	2.84
Cc1cc(Cl)c(S(=O)(=O)Nc2ccc3c(c2)OCO3)cc1OCC(N)=O	0.529
CC(=O)Nc1cccc(NC(=S)Nc2cccc(Cl)c2C)c1	4.97
CN(Cc1c(F)cccc1Cl)C(=O)c1ccc(NC(=O)CC2SC(N3CCCC3)=NC2=O)cc1 (stereo not shown)	7.81
O=C(CCc1[nH]c2ccccc2c1Sc1ccccc1)NCCO	0.0034
CCCCCC1CC(CC(=O)Nc2ccc([N+](=O)[O-])cc2)C(=O)O1 (stereo not shown)	-27.8
COc1ccc(NS(=O)(=O)c2ccc(OC)c3ccccc23)cn1	9.44
CCCCOc1ccc(C(=O)NCc2ccccn2)cc1	3.91
CCC(Sc1nc(-c2cccc(OC)c2)c(C#N)c(=O)[nH]1)C(=O)Nc1nnc(C(C)C)s1 (stereo not shown)	24
O=C(Nc1ccc2nc3ccccc3nc2c1)c1ccc(Br)cc1	8.85
